Laboratory results reported in patent publication US20210147571A1, “MONOCLONAL ANTIBODY TARGETING HUMAN TUMOR STEM CELLS AND USE THEREOF” (Suzhou Bojuhua Biomedical Technology Co. Ltd, priority 2017, published 2021).

Key:
[1] = test system: Hetumomab target antigen on cells; test: cell ELISA affinity of humanized chain versions; format: binding, human; conditions: heavy chain mutant combined with light chain of Hetuximab
From the text: Based on the H1 heavy chain sequence, two other heavy chain mutants were designed as initial humanization: H2 and H3. The degree of humanization of these versions was in descending order. […] Since H1 was the most humanized version in which the framework regions were all humanized, H1 was finally determined as the preferred humanization molecular template.
Based on the L1 with fully humanized FR region, L2 and L3 were designed, and the degree of humanization of the three version was also in descending order. […] In order to find out which key amino acids were mutated during humanization, back mutations were performed, and nine different mutants (L4-L12) were prepared.
Therefore, L6, L11, and L12 were finally selected for optimization screening of the best light chain humanized version.
However, glycosylated isomers of Hetuzumab H1 heavy chain were confirmed by antibody sequence analysis and reductive electrophoresis analysis. In the analysis of H1 heavy chain expression products by electrophoresis, H1L6, H1L11, and H1L12 were all shown with weak sub-bands visible below the main band of the heavy chain. […] This may cause serious quality problems of uniformity, which is very unfavorable for drug development. […] H4 and H5 were combined with L11, respectively, and analyzed by electrophoresis after expression. […]

[2] = test system: SNU-5 cells; test: flow immunofluorescence, positive cells in parental and sphere cells; format: binding, human; conditions: SNU-5, Table 32
Protocol: (§1) The human gastric cancer cell line SNU-5 and BGC-823 cells were cultured for 5 days in a serum-free manner, and the Hetumomab^+ cells in the parental cells and in the cells from sphere culture were detected by viable cell flow fluorescence cytometry. […] That is, after the serum-free culture, Hetumomab^+ cells of the gastric cancer cell line were enriched.
(§2) As described above, four cell lines, SNU-5, BGC-823, MHCC-97L, and BEL7402 V13, were used to harvest both parental cells and tumor-stem-cell-rich sphere cells. […] The results are as follows:
(§3) According to the aforementioned method, four cell lines, SNU-5, BGC-823, MHCC-97L, and BEL7402 V13, were used to harvest both parental cells and tumor-stem-cell-rich sphere cells. […]

[3] = test system: BGC-823 cells; test: as above; format: binding, human; conditions: BGC-823, Table 32
Protocol: as §1, §2, §3

[4] = test system: MHCC97L cells; test: as above; format: binding, human; conditions: MHCC-97L, Table 32
Protocol: (§4) The human liver cancer cell line Bel7402-V13 and MHCC97L cells were cultured for 5 days in a serum-free manner, and the Hetumomab^+ cells in the parental cells and in the cells from sphere culture were detected by viable cell flow fluorescence cytometry. […] That is, after serum-free culture, Hetumomab^+ cells of the liver cancer cell line were enriched.
as §2, §3

[5] = test system: Bel7402-V13 cells; test: as above; format: binding, human; conditions: BEL7402 V13, Table 32
Protocol: as §4, §2, §3

[6] = test system: Hetumomab target antigen in liver, lung, gastric cancer tissue sections; test: immunohistochemistry of antigen-positive and negative tissue sections; format: binding, human; conditions: Example 11
[7] = test system: Bel7402-V13 sphere cells; test: sphere-forming inhibition (self-renewal); format: cell-based, human; conditions: Table 33
Protocol: (§5) The main manifestation of the self-renewal ability of tumor stem cells is the ability to form spheres in serum-free medium, which is called asymmetric division, that is, when one cell divides into two daughter cells, one of the daughter cells maintains the same features as the parental cell, while the other daughter cell may continue to divide, forming normal daughter cells. […] And then Hetumomab (250 μg/mL) was used as the experimental group, and the PBS was used as a negative control group to incubate with the cells at 37° C. for 2 h, during which the cells were mixed with the antibody or the negative control once every half an hour. 500 cells in each group were inoculated into a semi-solid sphere medium (containing EGF, LIF, bFGF, etc.) containing 0.8% methylcellulose, and cultured in an ultra-low adhesion 24-well plate. 1-1.5 mL liquid medium was added every other day, and the number of spheres formed from the two groups was observed after 14 days.

[8] = test system: SNU-5 sphere cells; test: sphere-forming inhibition (self-renewal); format: cell-based, human; conditions: Table 33
Protocol: as §5

[9] = test system: MHCC-97L sphere cells; test: sphere-forming inhibition (self-renewal); format: cell-based, human; conditions: Table 33
Protocol: as §5

[10] = test system: BGC-823 sphere cells; test: sphere-forming inhibition (self-renewal); format: cell-based, human; conditions: Table 33
Protocol: as §5

[11] = BEL7402 V13, antibody 160 ug/ml

B1: H1: humanized heavy chain version H1 (SEQ ID NO:32), tested with the light chain of Hetuximab (antibody)
heavy: QVTLKESGPTLVKPTQTLTLTCTFSGFSLSTSGMGVSWIRQPPGKALEWLAHIYWDDDKRYNPSLKSRLTISKDTSKNQVVLTMTNMDPVDTATYYCARSFYYYANNSFAYWGQGTLVTVSS[human IgG1 constant region left out here]
light: DIVMTQAAFSNPVTLGTSASISCRSSKSLLHSNGITYLYWFLQKPGQSPQLLIYQMSNLASGVPDRFSSSGSGTDFTLRISRVEAEDVGVYYCAQNLELYTFGGGTKLEIKRTVAAPSVFIFPPSDEQLKSGTASVVCLLNNFYPREAKVQWKVDNALQSGNSQESVTEQDSKDSTYSLSSTLTLSKADYEKHKVYACEVTHQGLSSPVTKSFNRGEC
[1]
  affinity by cell ELISA vs chimeric antibody Hetuximab: retained the affinity

B2: Hetuzumab H5L6: humanized antibody, heavy chain SEQ ID NO:36 and light chain SEQ ID NO:42 (antibody)
heavy: QVTLKESGPTLVKPTQTLTLTCTFSGFSLSTSGMGVSWIRQPPGKALEWLAHIYWDDDKRYNPSLKSRLTISKDTSKNQVVLTMTNMDPVDTATYYCARSFYYYAANSFAYWGQGTLVTVSS[human IgG1 constant region left out here]
light: DIVMTQTPFSNPVTLGTSASISCRSSKSLLHSNGITYLYWFLQKPGQSPQLLIYQMSNLASGVPDRFSGSGSGTDFTLKISRVEAEDVGVYYCAQNLELYTFGQGTKVEIKRTVAAPSVFIFPPSDEQLKSGTASVVCLLNNFYPREAKVQWKVDNALQSGNSQESVTEQDSKDSTYSLSSTLTLSKADYEKHKVYACEVTHQGLSSPVTKSFNRGEC
modifications: Humanized heavy chain H5; Humanized light chain L6
[2]
  positive rate, Parent: 3.68%
  positive rate, Sphere: 6.20%
[3]
  positive rate, Parent: 3.84%
  positive rate, Sphere: 6.26%
[4]
  positive rate, Parent: 7.35%
  positive rate, Sphere: 16.17%
[5]
  positive rate, Parent: 7.12%
  positive rate, Sphere: 12.03%
[6]; 10 negative sections
  staining of negative tissue sections: did not stain
[6]; 10 positive sections
  staining of target antigen-positive tissue sections: positively stain
[7]; BEL7402 V13, antibody 10 ug/ml
  Average number of formed spheres: 201
  Inhibition Rate (%): 12.6%
[7]; BEL7402 V13, antibody 20 ug/ml
  Average number of formed spheres: 189
  Inhibition Rate (%): 17.8%
[7]; BEL7402 V13, antibody 40 ug/ml
  Average number of formed spheres: 156
  Inhibition Rate (%): 32.2%
[7]; BEL7402 V13, antibody 80 ug/ml
  Average number of formed spheres: 121
  Inhibition Rate (%): 47.8%
[7]; [11]
  Average number of formed spheres: 109
  Inhibition Rate (%): 52.6%
[8]; SNU-5, antibody 10 ug/ml
  Average number of formed spheres: 216
  Inhibition Rate (%): 11.8%
[8]; SNU-5, antibody 20 ug/ml
  Average number of formed spheres: 201
  Inhibition Rate (%): 18.0%
[8]; SNU-5, antibody 40 ug/ml
  Average number of formed spheres: 176
  Inhibition Rate (%): 28.2%
[8]; SNU-5, antibody 80 ug/ml
  Average number of formed spheres: 151.5
  Inhibition Rate (%): 38.2%
[8]; SNU-5, antibody 160 ug/ml
  Average number of formed spheres: 124
  Inhibition Rate (%): 49.4%
[9]; antibody 10 ug/ml
  Average number of formed spheres: 214
  Inhibition Rate (%): 11.2%
[9]; antibody 20 ug/ml
  Average number of formed spheres: 186
  Inhibition Rate (%): 22.8%
[9]; antibody 40 ug/ml
  Average number of formed spheres: 158.5
  Inhibition Rate (%): 34.2%
[9]; antibody 80 ug/ml
  Average number of formed spheres: 138
  Inhibition Rate (%): 42.7%
[9]; antibody 160 ug/ml
  Average number of formed spheres: 113
  Inhibition Rate (%): 53.1%
[10]; BGC-823, antibody 20 ug/ml
  Average number of formed spheres: 197
  Inhibition Rate (%): 22.1%
[10]; BGC-823, antibody 40 ug/ml
  Average number of formed spheres: 185
  Inhibition Rate (%): 26.8%
[10]; BGC-823, antibody 80 ug/ml
  Average number of formed spheres: 160
  Inhibition Rate (%): 36.8%
[10]; BGC-823, antibody 160 ug/ml
  Average number of formed spheres: 132
  Inhibition Rate (%): 47.8%
